# The campaign covered roughly 360,000 compounds. About 6,000 (1.7%) were called active. The shares of active, inactive and inconclusive entries below differ from those in the screen. Calls come from the whole dose curve; as a rule, active = well fitted cell-killing curve with a large enough effect; inconclusive = small, poorly fitted or top-dose-only effect, or effect the other way; inactive = flat fitted curve, though single readings scatter. Potencies of inconclusive entries are left out as doubtful fits.
# Experiment: qHTS for induction of synthetic lethality in tumor cells producing 2HG: qHTS for the HT-1080-NT fibrosarcoma cell line;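 note: NT is the 2HG producing partner of a matched IDH1 knockdown line; nearly all actives have a fitted effect of over 55% in size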;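 for activity, negative = less viability: 0% = DMSO-treated cells and -100% = media-only wells without cells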
# Settings: HT-1080-NT fibrosarcoma viability, CellTiter-Glo ATP luminescence, 48 h; activity, negative = less viability: at 46.1 µM (top of the series) unless noted
# Outline: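 Viability of the 2HG-overproducing fibrosarcoma line after 48 hours of compound exposure at 37 degrees C was determined by luminescence with CellTiter-Glo, and concentration-effect curves were then fitted and categorized.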
# Potency is the fitted concentration of half-maximal effect; tags give direction and shape of the fitted curve.
Structure (SMILES),"activity, negative = less viability",Potency
Cc1[nH]c2ccc(C(=O)NCCCN3CCOCC3)cc2c1C,inactive: 9.87%,
CC1(C(=O)NS(=O)(=O)c2ccc(Br)cc2)CCN1C(=O)Cc1ccsc1 (stereo not drawn),inactive: 1.75%,
Cc1nnsc1C(=O)NC1CCCc2c1cnn2-c1ccc(F)cc1F (stereo not drawn),,active: 7.31 µM
CCCN1CNc2c(c(=O)[nH]c(=S)n2CCc2cccc(C)c2C)C1,inactive: 10.5%,
O=C(NC(=S)Nc1cccc(Cl)c1)c1cncc(Br)c1,,"inconclusive [cytotoxic, single point]"
COC(=O)Cc1ccc(NC(=S)NCc2ccccc2Cl)cc1,,"inconclusive [cytotoxic, partial curve, poor fit]"
O=C(Nc1ccc(Br)cn1)c1cccc2ccccc12,,active: 2.91 µM
O=C(Cc1n[nH]c(=O)c2ccccc12)OCC(=O)c1ccc2c(c1)OCCO2,,"inconclusive [cytotoxic, full curve]"
O=C(Nc1ccc(Cl)c(S(=O)(=O)N2CCOCC2)c1)c1ccncc1,inactive: -20.7%,
CNC(=S)N1N=C(c2ccc(C)cc2)CC1c1cc(OC)ccc1OC (stereo not drawn),,"inconclusive [cytotoxic, single point]"
O=C(NCCCN1CCN(c2ccc(F)cc2)CC1)NC12CC3CC(CC(C3)C1)C2,,active: 16.4 µM
Cc1c(C(=O)NN)nc2ccccn12,inactive: -0.372%,
CCCc1cc(C(=O)N/N=C/c2ccc(C)o2)c2ccccc2n1,,"inconclusive [cytotoxic, partial curve, poor fit]"
COc1cc(OC)c2c(-c3ccccc3)cc(=O)oc2c1C(CCN1CCOCC1)c1ccc(N(C)C)cc1 (stereo not drawn),inactive: -1.72%,
O=S1(=O)C[C@H](N2CCC[C@@H]2CO)[C@@H](COCc2ccccc2)N1,,"inconclusive [rising, single point]"
CCCCNCC(O)(c1ccc(Cl)cc1)c1ccc(Cl)cc1,,"inconclusive [cytotoxic, single point]"
CCN(CC)S(=O)(=O)c1ccc(Cl)c(C(=O)OC2CC(C)OC2=O)c1 (stereo not drawn),,"inconclusive [rising, full curve]"
COc1cc(OC)cc(N2C(=O)CSCC2=O)c1,inactive: 0.614%,
CC1(C)Cc2c(cnn2-c2ccc(F)cc2)C(NC(=O)CN2CCCC2=O)C1 (stereo not drawn),inactive: -0.113%,
CC(C)COc1ccc(C(=O)CCN2CCCCC2)cc1,,active: 18.4 µM
COc1cc(NC(=O)c2ccc([N+](=O)[O-])o2)ccc1NC(=O)c1cccs1,inactive: -15.4%,
CCN(CC)S(=O)(=O)c1cccc(NC2=NCCCCC2)c1,inactive: 0.689%,
Cc1cccc(-c2ocnc2C(=O)Nc2ccccc2NC(=O)c2ccccn2)c1,,active: 18.4 µM
CC1CC(C)CN(C(=O)COC(=O)c2ccc3c(c2)OCO3)C1 (stereo not drawn),inactive: 1.86%,

Structure (SMILES),"activity, negative = less viability",Potency
CC(=O)c1c(C)[nH]c(C(=O)OCC(=O)C(C)(C)C)c1C,inactive: 5.3%,
COc1ccc(CNc2ccc3cn[nH]c3c2)c(OC)c1OC,,"inconclusive [cytotoxic, partial curve]"
CC(=O)Nc1ccc(CNc2nc(NCc3cccs3)nc3ccsc23)cc1,,"inconclusive [cytotoxic, partial curve]"
CCOC(=O)c1c(C)nc2sc(C(=O)Nc3ccc(OC)cc3)c(N)c2c1-c1ccc(OC)cc1,,"inconclusive [cytotoxic, single point]"
CCOc1ccc(-c2nnc(SCc3nnc(-c4ccccc4)o3)n2-c2ccccc2F)cc1,inactive: 2.31%,
O=C(N/N=C/c1cccs1)c1cc(-c2ccc3ccccc3c2)n[nH]1,,"inconclusive [cytotoxic, single point]"
Cc1ccc2c(c1)c1ccc3c(c1n2C)C(=O)C=CC3=O,inactive: -12.2%,
CCCCN(C)C(=O)c1ccc(Nc2nc(C(N)COCc3ccccc3)cs2)nc1 (stereo not drawn),,"inconclusive [cytotoxic, partial curve]"
CS(=O)(=O)c1cccc(C(=O)Nc2cccc(-c3nc4ccccc4[nH]3)c2)c1,,"inconclusive [cytotoxic, single point]"
CCCC(=O)Nc1nc2ccc(NC(=O)c3ccccc3F)cc2s1,,"inconclusive [cytotoxic, full curve]"
O=S(=O)(Nc1cccc2c1CCCC2)c1cccc(C(F)(F)F)c1,,"inconclusive [cytotoxic, single point]"
O=C(COc1ccc([N+](=O)[O-])cc1)NNC(=O)Nc1ccccc1F,,active: 4.11 µM
Nc1c(-c2ccc(Cl)cc2)cnn1-c1ccccc1,,"inconclusive [rising, full curve, poor fit]"
Nc1c([N+](=O)[O-])c(=O)oc2ccccc12,inactive: 0.201%,
CCN1CCN(c2ccc(Cl)cc2NC(=O)c2ccc(-n3nc(C)cc3C)cc2)CC1,,"inconclusive [cytotoxic, partial curve]"
CCSC1=C(C#N)C(c2ccccc2Cl)C(C(=O)c2cccs2)C(O)(C(F)(F)F)N1 (stereo not drawn),,"inconclusive [cytotoxic, single point]"
O=C(Nc1ccc(-c2cscn2)cc1)C1CCCN(Cc2ccccc2)C1 (stereo not drawn),,"inconclusive [cytotoxic, single point]"
CC(=O)c1cccc(NC(=O)COC(=O)c2n[nH]c3ccccc23)c1,,"inconclusive [rising, partial curve]"
Cc1ccccc1Cn1cc(NC(=O)c2nc3ncccn3n2)cn1,,"inconclusive [cytotoxic, single point]"
Cc1ccccc1C(=O)N(Cc1nc2ccccc2c(=O)[nH]1)C1CCCC1,,"inconclusive [cytotoxic, single point]"
Nc1cnn(Cc2ccccc2F)c1,,"inconclusive [cytotoxic, partial curve, poor fit]"
COc1ccccc1S(=O)(=O)N(C)C[C@H]1Oc2cc(Br)ccc2S(=O)(=O)N([C@@H](C)CO)C[C@H]1C,inactive: -11%,
COc1ccc(C(CCNC(C)c2ccccc2)c2ccc(F)cc2)cc1 (stereo not drawn),,"inconclusive [cytotoxic, single point]"
CC(=O)NC(CC(=O)N(C)C1CCCCC1)c1ccccc1 (stereo not drawn),inactive: 7.84%,
